Test results taken from the antibiotic and cytotoxicity screens of Wong et al. (2023).
Some of the results follow.

System: HSkMC (human skeletal muscle cells)
Test: cytotoxicity call (relative viability < 0.9)
Settings: 10 µM

| SMILES | cytotoxicity call |
| --- | --- |
| CCS(=O)(=O)N1C[C@]2(CCN(CC2)Cc2cccc(c2)OC)c2c([nH]c3cc(ccc23)OC)[C@@H]1CO | inactive |
| C[C@H](CO)N1C[C@H](C)[C@H](CN(C)Cc2ccc(-c3ccccc3)cc2)Oc2ccc(NC(=O)c3ccncc3)cc2CC1=O | inactive |
| C[C@H]1CN([C@@H](C)CO)C(=O)c2c(c3ccccc3n2C)-c2ccccc2CO[C@@H]1CN(C)Cc1ccccc1 | inactive |
| CCC(=O)N1CCC(C(=O)O)CC1 | inactive |
| CN1CCN(C(=O)C[C@@H]2CC[C@@H]3[C@@H](COc4ccc(NC(=O)c5cscn5)cc4C(=O)N3C)O2)CC1 | inactive |
| C[C@H](CO)N1C[C@H](C)[C@H](CN(C)C(=O)c2ccccc2F)Oc2ncc(C#Cc3ccncc3)cc2C1=O | inactive |
| CN1C(=O)c2cc(NC(=O)c3cscn3)ccc2OC[C@@H]2O[C@H](CC(=O)N3CCOCC3)CC[C@H]21 | inactive |
| Cc1noc(C)c1NC(=O)Nc1ccc2c(c1)C(=O)N([C@@H](C)CO)C[C@@H](C)[C@H](CN(C)CC1CC1)OCCCC[C@H](C)O2 | inactive |
| C[C@H]1CN([C@@H](C)CO)C(=O)Cc2cc(NC(=O)Cn3cnnn3)ccc2O[C@H]1CN(C)CC1CC1 | inactive |
| C[C@@]1(O)N(CC(=O)O)C(=O)OC12CCCCC2 | inactive |
| C[C@H](CO)N1C[C@H](C)[C@@H](CN(C)S(=O)(=O)c2cn(C)cn2)Oc2c(NC(=O)Nc3ccc(F)cc3)cccc2C1=O | inactive |
| C[C@@H]1CCCCO[C@H](CN(C)C(=O)NC2CCCCC2)[C@H](C)CN([C@@H](C)CO)C(=O)c2cc(NC(=O)C3CCCCC3)ccc2O1 | inactive |
| Cc1noc(C)c1NC(=O)Nc1ccc2c(c1)C(=O)N([C@H](C)CO)C[C@H](C)[C@H](CN(C)CC1CCCCC1)OCCCC[C@@H](C)O2 | inactive |
| COCCNCCn1cnc2c1c(=O)[nH]c(=O)n2C | inactive |
| CC(O)C(N)C(=O)O (stereo not given) | inactive |
| COCCOC(=O)N1C(=O)[C@@]2(c3cc(C#CC4=CCCCC4)ccc31)[C@H](c1ccccc1OCCO)N1[C@H](c3ccccc3)[C@H](c3ccccc3)OC(=O)[C@H]1[C@@H]2C(=O)N1CCc2cc(OC)c(OC)cc2C1 | inactive |
| COc1ccc(CN(C)C[C@@H]2Oc3c(NS(=O)(=O)c4cn(C)cn4)cccc3C(=O)N([C@@H](C)CO)C[C@@H]2C)cc1 | inactive |
| C[C@@H]1CN([C@@H](C)CO)C(=O)Cc2cc(NC(=O)Nc3ccc(C(F)(F)F)cc3)ccc2O[C@H]1CN(C)C(=O)Nc1cccc2ccccc12 | inactive |
| Cc1ccc(-c2ccc3c(c2)O[C@@H](CN(C)C(=O)CN(C)C)[C@@H](C)CN([C@H](C)CO)S3(=O)=O)cc1 | inactive |
| COc1ccc(NC(=O)N(C)C[C@@H]2Oc3ccc(NC(=O)CCCCCC(=O)Nc4ccccc4N)cc3CC(=O)N([C@@H](C)CO)C[C@@H]2C)cc1 | inactive |

| SMILES | cytotoxicity call |
| --- | --- |
| COc1ccccc1CN1C(=O)c2ccccc2[C@@]2(Cc3ccccc3N(C(C)C)C2=O)[C@@H]1c1ccc(CO)cc1 | inactive |
| C[C@@H]1CCCCO[C@@H](CN(C)C(=O)Nc2cccc3ccccc23)[C@@H](C)CN([C@H](C)CO)C(=O)c2cc(NS(=O)(=O)c3ccc(Cl)cc3)ccc2O1 | inactive |
| Cc1noc(C)c1S(=O)(=O)Nc1ccc2c(c1)CC(=O)N([C@H](C)CO)C[C@H](C)[C@@H](CN(C)Cc1ccccc1)O2 | inactive |
| COc1ccc(NC(=O)N(C)C[C@@H]2OCCCC[C@@H](C)Oc3ccc(NC(=O)Nc4ccc(C(F)(F)F)cc4)cc3C(=O)N([C@H](C)CO)C[C@@H]2C)cc1 | inactive |
| COc1ccc2c3c([nH]c2c1)[C@@H](CO)N(C[C@]13CCN(CC1)C(=O)Nc1cccc(c1)F)C(=O)c1ccc(cc1)F | inactive |
| CN(C)CCCNC(=O)C[C@@H]1CC[C@H]2[C@@H](COC[C@@H](O)CN2S(=O)(=O)c2ccc(F)cc2)O1 | inactive |
| COc1ccc(S(=O)(=O)Nc2ccc3c(c2)C(=O)N([C@@H](C)CO)C[C@@H](C)[C@H](CN(C)C(=O)Nc2ccc(C(F)(F)F)cc2)OCCCC[C@H](C)O3)cc1 | inactive |
| COc1ccc([Si](C)(C)[C@H]2[C@H](CCn3cc(CCO)nn3)O[C@@]3(C(=O)N(C)c4ccccc43)[C@@H]2C)cc1 | inactive |
| Cc1noc(C)c1NC(=O)N(C)C[C@@H]1Oc2c(NS(=O)(=O)c3cn(C)cn3)cccc2C(=O)N([C@H](C)CO)C[C@@H]1C | inactive |
| C[C@@H]1CN([C@@H](C)CO)C(=O)c2cc(NC(=O)Nc3ccc4c(c3)OCO4)ccc2O[C@H]1CN(C)Cc1ccc(Oc2ccccc2)cc1 | inactive |
| O=C1CCOC[C@@H]2CCCN12 | inactive |
| C[C@H](CO)N1C[C@H](C)[C@H](CN(C)C(=O)Nc2ccccc2)Oc2ccc(NC(=O)C3CC3)cc2CC1=O | inactive |
| CCCC(=O)Nc1ccc2c(c1)C(=O)N(C)C[C@@H](OC)[C@H](C)CN(S(=O)(=O)c1cn(C)cn1)[C@H](C)CO2 | inactive |
| C[C@@H]1CN([C@H](C)CO)C(=O)c2cc(NC(=O)Nc3ccccc3)ccc2O[C@@H]1CN(C)Cc1ccc(C(=O)Nc2ccccc2N)cc1 | inactive |
| C[C@@H]1CCCCO[C@@H](CN(C)CC2CCCCC2)[C@H](C)CN([C@@H](C)CO)C(=O)c2cc(NC(=O)Nc3ccccc3)ccc2O1 | inactive |
| C[C@H](CO)N1C[C@H](C)[C@H](CN(C)S(=O)(=O)c2ccc(F)cc2)OCCCC[C@H](C)Oc2ccc(NC(=O)Nc3ccc(C(F)(F)F)cc3)cc2C1=O | inactive |
| O=C1C(NS(=O)(=O)c2ccc(Br)cc2)=C(c2ccc(OC(F)(F)F)cc2)C(=O)c2ccccc21 | inactive |
| COc1ccc(S(=O)(=O)Nc2ccc3c(c2)C(=O)N([C@@H](C)CO)C[C@H](C)[C@@H](CN(C)S(=O)(=O)c2ccc(Cl)cc2)OCCCC[C@@H](C)O3)cc1 | inactive |
| COc1ccc(S(=O)(=O)N(C)C[C@H]2Oc3ccc(NC(=O)CCCN(C)C)cc3C(=O)N([C@@H](C)CO)C[C@@H]2C)cc1 | inactive |
| C[C@H](CO)N1C[C@H](C)[C@@H](CN(C)Cc2ccc(C(F)(F)F)cc2)OCCCC[C@H](C)Oc2ccc(NC(=O)C3CCCCC3)cc2C1=O | inactive |
